Test results taken from PubChem BioAssay AID463173 (ICCB-Longwood Screening Facility, Harvard Medical School, 2010).
The whole screen tested about 52,000 compounds, of which about 1,700 (3.3%) were called active. Rule as the data show it: active = survival mostly below about 52% (no sharp cut-off); inactive = mostly above about 56%. The list shows a part of the results.

test system: Wild type; assay: growth inhibition of S. aureus wild type versus tarO mutant, primary screen, teichoic acid synthesis inhibitors, RN4220, OD600 (AID 463173); details: S. aureus RN4220 wild type/DeltatarO growth, OD600, 18 h, hits give low values, screened at 18.75 µg/mL (by protocol)

Question: How did the survival turn out when COc1ccccc1NC(=O)c1cc(S(=O)(=O)NCCC2=CCCCC2)ccc1F was run?
Answer: inactive: 47%

Question: For CN1CCN(C(CNC(=O)c2ccccc2)c2ccc3c(c2)OCO3)CC1 (stereo not given), which survival is on record?
Answer: inactive: 81%

Question: Which survival does the source give for CNC(=O)C1CCN(c2nc3ccccc3nc2C(F)(F)F)CC1 here?
Answer: inactive: 79%

Question: Which survival does the source give for O=C(Nc1ccc(C(F)(F)F)cc1)N1CCC(N2CCCCC2)CC1 here?
Answer: inactive: 109%

Question: CCc1ccc(NC(=O)N2CCN(C(=O)c3nsc4ccccc34)CC2)cc1 was tested. Which survival did it give?
Answer: inactive: 76%

Question: CNC(=O)c1ccc(CSc2nc3ccncc3n2Cc2ccc(C)cc2)cc1 was tested. Which survival did it give?
Answer: inactive: 76%

Question: With COc1cc(Cl)c(C)cc1NC(=O)c1cnc2c(-c3cccc(C)c3)c(C)nn2c1C as the compound, how does the survival read?
Answer: active: 14%

Question: For Cc1ccsc1CN1CCc2nc(N3CCN(c4ccccc4F)CC3)ncc2C1, which survival is on record?
Answer: inactive: 67%

Question: Which survival does the source give for COCC(O)CNc1ccccc1 (stereo not given) here?
Answer: inactive: 109%

Question: Which survival does the source give for CCOc1ccc(OCC)c(Nc2nc3ccc(Cl)cc3n3cnnc23)c1 here?
Answer: inactive: 69%

Question: For COc1cccc(CNC(=O)Cn2c(C)c3cnn(-c4ccccc4)c(=O)c3c2C)c1, which survival is on record?
Answer: inactive: 86%

Question: Which survival does the source give for CCC(Oc1ccccc1)C(=O)N1CCOCC1 (stereo not given) here?
Answer: inactive: 113%

Question: With CCCN(C(=O)Cn1cc(S(=O)(=O)N2CCN(c3ccccc3F)CC2)c2ccccc2c1=O)c1cccc(C)c1 as the compound, how does the survival read?
Answer: inactive: 92%

Question: How did the survival turn out when CC(C)CN(CCNC(=O)c1cc(-c2ccc(Cl)s2)nc2ccccc12)CC(C)C was run?
Answer: inactive: 80%

Question: For CC(C)(C)C(=O)Cn1c(=O)n(-c2ccc(Cl)c(Cl)c2)c(=O)c2c3c(sc21)CCCC3, which survival is on record?
Answer: inactive: 96%

Question: With COc1ccc(C(=O)NCCNc2nc3c(C)cccc3cc2C#N)cc1OC as the compound, how does the survival read?
Answer: inactive: 102%

Question: With Cc1cc(C)cc(N2CCn3c2nc2c3c(=O)n(CCCc3ccccc3)c(=O)n2C)c1 as the compound, how does the survival read?
Answer: inactive: 78%

Question: How did the survival turn out when COCc1cc(C)nc2sc(C(=O)Nc3cc(C)ccc3F)c(N)c12 was run?
Answer: inactive: 68%

Question: With COc1ccc(CCNC(=O)Cn2cc(C(=O)c3ccc(F)cc3)c(=O)c3ccc(C)nc32)cc1OC as the compound, how does the survival read?
Answer: inactive: 152%

Question: Which survival does the source give for Cc1ccc(CNC(=O)CCC(=O)N2CCSc3ccccc32)cc1 here?
Answer: inactive: 109%

Question: Cc1ccc(CNC(=O)CCCn2c(=O)c3ccccc3n(Cc3ccc(Cl)cc3)c2=O)cc1 was tested. Which survival did it give?
Answer: inactive: 73%

Question: Which survival does the source give for CN(C(=O)CSc1nnc(-c2ccc([N+](=O)[O-])cc2)o1)c1ccccc1 here?
Answer: inactive: 75%

Question: For COCCCNC(=O)C1CCCN(c2nn3cc(-c4ccc(C)cc4)nc3s2)C1 (stereo not given), which survival is on record?
Answer: inactive: 146%

Question: CCOc1ccc(-c2noc(CSc3nnc(Cc4ccccc4)n3-c3cccc(C)c3)n2)cc1 was tested. Which survival did it give?
Answer: inactive: 65%

Question: With Cc1ccc(-c2nc3cc(C(C)C)ccc3o2)cc1NC(=O)c1cc([N+](=O)[O-])ccc1N1CCOCC1 as the compound, how does the survival read?
Answer: inactive: 103%

Question: For COC(=O)C1C(=O)C2=C(CC1C)Nc1ccccc1NC2c1ccc(O)c(OC)c1 (stereo not given), which survival is on record?
Answer: inactive: 114%

Question: With Cc1cccc(-c2nc3ccccc3n3c(-c4ccccc4)c4c(=O)n(C)c(=O)n(C)c4c23)c1 as the compound, how does the survival read?
Answer: inactive: 121%

Question: Which survival does the source give for O=C(Nc1ccc(F)c(Cl)c1)N1CCC(CN2CCc3ccccc3C2)CC1 here?
Answer: inactive: 57%

Question: With Nc1ncc2c(n1)CC(c1ccco1)CC2=O (stereo not given) as the compound, how does the survival read?
Answer: inactive: 92%

Question: Which survival does the source give for NCCNC(=O)CCc1n[nH]c(=O)c2ccccc12 here?
Answer: inactive: 113%

Question: How did the survival turn out when NC1CCN(C(=O)NC2CCCCC2)CC1 was run?
Answer: inactive: 114%

Question: CCC(C)NC(=O)CCc1c(C)nc2cc(-c3ccc(OC)cc3OC)nn2c1C (stereo not given) was tested. Which survival did it give?
Answer: inactive: 71%

Question: Which survival does the source give for Cc1cccc(CCNC(=O)C2CCN(c3nc4ccccc4nc3C(F)(F)F)CC2)c1 here?
Answer: inactive: 75%

Question: How did the survival turn out when CCc1ccc(NC(=O)Cn2cnc3sc(C)c(S(=O)(=O)N4CCN(c5ccccc5OC)CC4)c3c2=O)cc1 was run?
Answer: inactive: 138%

Question: O=C(Oc1ccnc2cc(Cl)ccc12)N1CCCCC1 was tested. Which survival did it give?
Answer: inactive: 105%

Question: How did the survival turn out when Cc1ccc(-n2ncc3c(NCC(C)C)ncnc32)c(C)c1 was run?
Answer: active: 10%

Question: Which survival does the source give for CCc1cccc(NC(=O)c2ccc(CNS(=O)(=O)c3ccc4c(c3)C(C)(C)C(=O)N4C)cc2)c1 here?
Answer: inactive: 77%

Question: Which survival does the source give for COc1ccccc1-c1cc2nc(C)c(CCC(=O)Nc3cc(C)ccc3C)c(C)n2n1 here?
Answer: inactive: 82%

Question: How did the survival turn out when CN1C(=O)C2C3c4ccccc4C(c4ccccc43)C2C1=O (stereo not given) was run?
Answer: inactive: 106%

Question: With COC(=O)c1ccccc1-n1cc2c(c1-c1cccc(C)c1)c(=O)n(C)c(=O)n2C as the compound, how does the survival read?
Answer: inactive: 93%

Question: Which survival does the source give for Cc1ccc(C)c(NC(=O)Nc2cccc(-c3cn4cccnc4n3)c2)c1 here?
Answer: inactive: 71%

Question: Which survival does the source give for COc1ccc(-n2nnc(-c3nc(-c4cccs4)no3)c2N)cc1 here?
Answer: inactive: 96%

Question: How did the survival turn out when CCN(C(=O)c1ccco1)c1nnc(Cn2nnc3ccccc32)s1 was run?
Answer: inactive: 108%

Question: With Cc1oc(-c2ccccc2F)nc1CSc1nnc(C)n2c1cc1occc12 as the compound, how does the survival read?
Answer: inactive: 99%

Question: With CC(C)(C)OC(=O)N1CCC(c2c(C(=O)N3CCOCC3)cnn2-c2cccc(F)c2)CC1 as the compound, how does the survival read?
Answer: inactive: 136%

Question: Which survival does the source give for O=C(CSc1nc2c(c(=O)[nH]1)CN(Cc1ccc3c(c1)OCO3)CC2)Nc1ccc(F)c(F)c1 here?
Answer: inactive: 105%

Question: With CCCN(CCC)CCNC(=O)C1CCN(c2nc3ccc(CC)cc3s2)CC1 as the compound, how does the survival read?
Answer: inactive: 67%

Question: With CCOC(=O)c1cnc2ccc(Cl)cc2c1Nc1ccc(N2CCOCC2)cc1 as the compound, how does the survival read?
Answer: active: 0%

Question: With O=C(Nc1ccc(C(=O)N2CCN(c3ccccc3)CC2)cc1)c1nsc2ccccc12 as the compound, how does the survival read?
Answer: active: -3%

Question: With Cc1ccc(S(=O)(=O)c2cn(Cc3ccc(F)cc3)c3cc(N4CCCC4)c(F)cc3c2=O)cc1 as the compound, how does the survival read?
Answer: inactive: 67%

Question: With CCOc1ccc(CCNC(=O)c2cc3sc(CC)cc3n2C)cc1OCC as the compound, how does the survival read?
Answer: inactive: 72%

Question: For Cc1ccc(S(=O)(=O)N2CCC(n3c(C)nc4cccnc43)CC2)c(C)c1, which survival is on record?
Answer: inactive: 71%

Question: How did the survival turn out when CCc1ccccc1NC(=O)C(=O)NCCc1sc(-c2cccc(F)c2)nc1C was run?
Answer: inactive: 65%

Question: How did the survival turn out when N#Cc1c(-c2ccc3c(c2)OCO3)cc(-c2ccc(F)cc2)nc1N was run?
Answer: inactive: 100%

Question: Which survival does the source give for Cc1ccc(CNC(=O)c2ccc(-c3nc(CS(=O)(=O)c4ccc(C)cc4)c(C)o3)cc2)cc1 here?
Answer: inactive: 67%

Question: With CCCCNCc1cccn1-c1ccccc1 as the compound, how does the survival read?
Answer: inactive: 107%

Question: Cc1[nH]c2ccccc2c1SCCNC(=O)c1ccccc1F was tested. Which survival did it give?
Answer: inactive: 60%

Question: For CC1CCN(C(=O)CSc2nc3cc4c(cc3cc2C#N)OCO4)CC1, which survival is on record?
Answer: inactive: 102%

Question: Which survival does the source give for COC(=O)c1ccccc1-n1c(CCC(=O)O)ccc1-c1ccccc1 here?
Answer: inactive: 127%

Question: How did the survival turn out when COc1cccc(CNC(=O)c2ccc3c(c2)nc2n3CCC(C)C2)c1OC (stereo not given) was run?
Answer: inactive: 73%

Question: With O=C(NCc1ccccc1Cl)c1cc2cccc3c2n1CCS3 as the compound, how does the survival read?
Answer: inactive: 115%

Question: Which survival does the source give for CC(C)Oc1ccc(CNC(=O)Cn2ncn3nc(-c4cccs4)cc3c2=O)cc1 here?
Answer: inactive: 101%

Question: With COc1ccc(CC(C(=O)O)c2ccccc2)cc1 (stereo not given) as the compound, how does the survival read?
Answer: inactive: 99%

Question: Which survival does the source give for CCOC(=O)C1CCCN(C(=O)c2[nH]c3ccccc3c2Sc2ccc(Cl)cc2)C1 (stereo not given) here?
Answer: inactive: 75%

Question: How did the survival turn out when c1ccc(N2CCN(c3ccccc3)C2c2cccs2)cc1 was run?
Answer: inactive: 109%

Question: CCOC(=O)Cc1cc(=O)[nH]c(/N=C(\N)Nc2cccc(Cl)c2)n1 was tested. Which survival did it give?
Answer: inactive: 87%

Question: How did the survival turn out when O=C(c1cccs1)N1CCC(Cc2ccccc2)CC1 was run?
Answer: inactive: 110%

Question: Which survival does the source give for COc1ccc(C(=O)NCC(c2ccco2)S(=O)(=O)c2cccs2)cc1OC (stereo not given) here?
Answer: inactive: 130%

Question: Cc1ccnc(NS(=O)(=O)c2ccc(NC(=O)c3nc(SC(C)C)ncc3Cl)cc2)n1 was tested. Which survival did it give?
Answer: inactive: 85%

Question: Which survival does the source give for O=C1CCN(C(=O)/C=C/c2ccccc2)c2ccccc21 here?
Answer: inactive: 112%

Question: How did the survival turn out when Cc1cc(C)c2oc(C(=O)Nc3c(C(=O)Nc4ccccc4)oc4ccccc34)cc(=O)c2c1 was run?
Answer: inactive: 92%

Question: With Cn1c(SCc2ccc(F)cc2)nc2ccc(C(=O)NCc3ccccc3)cc21 as the compound, how does the survival read?
Answer: inactive: 61%

Question: Which survival does the source give for CCCCn1cc(S(=O)(=O)c2ccc(Cl)cc2)c(=O)c2cc(F)c(N3CCCCC3)cc21 here?
Answer: inactive: 105%

Question: For Cc1ccc(OCC(=O)Nc2ccc(S(=O)(=O)N(Cc3ccccc3)c3ccccc3)cc2)cc1, which survival is on record?
Answer: inactive: 91%

Question: With Cc1cccc(C(=O)Nc2ccccc2C(=O)OCc2cc(=O)n3nc(C4CC4)sc3n2)c1 as the compound, how does the survival read?
Answer: inactive: 79%

Question: With CCOC(=O)c1c(-c2ccc(OC)c(OC)c2)csc1NC(=O)c1ccc(F)cc1 as the compound, how does the survival read?
Answer: inactive: 72%

Question: With COc1cc2c(-c3ccccc3Cl)nc3c(c(C)nn3-c3ccccc3)c2cc1OC as the compound, how does the survival read?
Answer: inactive: 73%

Question: For CC1(C)OC(c2ccccc2)CC1=O (stereo not given), which survival is on record?
Answer: inactive: 98%

Question: With COc1ccccc1CNC(=O)c1c(O)nc2cc(C)ccn2c1=O as the compound, how does the survival read?
Answer: inactive: 84%

Question: With Cc1nc2ccc(S(=O)(=O)NC(C(=O)NCc3ccc(Cl)cc3)C(C)C)cc2s1 (stereo not given) as the compound, how does the survival read?
Answer: inactive: 133%

Question: For CCc1ccc2occ(CC(=O)Nc3sc4c(c3C(=O)OC)CCC4)c2c1, which survival is on record?
Answer: inactive: 85%

Question: How did the survival turn out when O=C(C1CCN(c2nc3ccccc3[nH]2)CC1)N1CCN(c2cccc(Cl)c2)CC1 was run?
Answer: active: 0%

Question: How did the survival turn out when CSC1=NC2(CCN(C(=O)NC3CCCCC3)CC2)N=C1c1ccc(C(C)(C)C)cc1 was run?
Answer: inactive: 80%

Question: Which survival does the source give for COc1cccc(N2C(=O)CSC23C(=O)N(CC(=O)NCc2ccc(C)cc2)c2ccccc23)c1 (stereo not given) here?
Answer: inactive: 68%

Question: How did the survival turn out when CCCN(CCC)CCCNC(=O)c1cn(CC)c2ccc(S(=O)(=O)N3CCc4ccccc4C3)cc2c1=O was run?
Answer: inactive: 81%

Question: With COc1cccc(CNCCSc2nnnn2C)c1OCc1ccc(Cl)cc1 as the compound, how does the survival read?
Answer: inactive: 84%

Question: For CCOC(=O)c1ccc2c(c1)N(CC(=O)Nc1ccc(CC)cc1)C(=O)c1ccccc1S2, which survival is on record?
Answer: inactive: 60%

Question: Which survival does the source give for Cc1ccc(Nc2c(-c3ccc(N4CCOCC4)cc3)nc3ncccn23)cc1C here?
Answer: inactive: 92%

Question: Which survival does the source give for COc1cc(NC(=O)Cn2cnc3sc(C)c(S(=O)(=O)N4CCN(C)CC4)c3c2=O)cc(OC)c1OC here?
Answer: inactive: 145%

Question: With CN(C(=O)c1cc2sccc2n1Cc1ccc(F)cc1)C1CCCCC1 as the compound, how does the survival read?
Answer: inactive: 130%
